Laboratory results: ChEMBL document CHEMBL1201862, “PubChem BioAssay data set” (2004)

test system: NCI-H322M; experiment: NCI anticancer screen, dose series, 48 h

Row | Structure (SMILES) | GI50
1 | CC(C)CCC[C@@H](C)C1CCC2[C@@H]3CC=C4C[C@@H](C(=O)NCC[N+](C)(C)CCCS(=O)(=O)[O-])CC[C@]4(C)C3CC[C@@]21C (some centres not stated) | inactive: 15.8 µM
2 | N#CC1(C#N)NC(c2ccsc2)C(C#N)(C#N)NC1c1ccsc1 (configuration not stated) | inactive: > 100 µM
3 | COc1ccc(N2C(=O)C3c4[nH]c5ccc(C)cc5c4C4CCC(c5ccccc5)CC4C3C2=O)cc1 (configuration not stated) | inactive: > 100 µM
4 | CCOc1ccc(N2C(=O)C3c4[nH]c5ccccc5c4C4CCC(C(C)(C)C)CC4C3C2=O)cc1 (configuration not stated) | inactive: > 100 µM
5 | Cc1nc(-c2nc([N+](=O)[O-])c([N+](=O)[O-])[nH]2)cs1 | inactive: > 100 µM
6 | CC(C)C1CO[C@]2(C)CCC(=O)N12 (some centres not stated) | inactive: > 100 µM
7 | O=C(Cn1ccnc1[N+](=O)[O-])NCc1ccc(F)cc1 | inactive: > 100 µM
8 | CC(NC(=O)c1ccccc1)(C(=O)O)C(=O)O | inactive: > 100 µM
9 | Oc1ccc(O)c(CNc2ccc(C(O)C(F)(F)F)cc2)c1 (configuration not stated) | inactive: 27.9 µM
10 | CCCCNC(=O)OCCN=C1c2ccccc2C(Br)C(Br)c2ccccc21 (configuration not stated) | inactive: > 100 µM
11 | O=c1c(O)c(-c2ccc(O)c(O)c2)oc2cc(O)ccc12 [FISETIN] | inactive: 18.2 µM
12 | CCOP(=O)(OCC)/C(C#N)=C/c1cccn1C | inactive: > 100 µM
13 | C#CCNC(Cc1c[nH]cn1)C(=O)O (configuration not stated) | inactive: > 100 µM
14 | O=C1Nc2ccccc2S/C1=C\c1ccc(C(F)(F)F)cc1 | inactive: > 100 µM
15 | COc1ccc(-n2c(C)nc3ccc(NC4OCC(O)C(O)C4O)cc3c2=O)cc1 (configuration not stated) | inactive: > 100 µM
16 | C=C(C)c1nc(Oc2ccccc2)nc(Oc2ccccc2)n1 | inactive: 17.2 µM
17 | CC(=O)OC1OC(c2ccoc2)C[C@@]12C1CCC3O[C@]3(C)[C@]1(C)C[C@H](OC(C)=O)[C@H]2C (some centres not stated) | inactive: > 75 µM
18 | COC(=O)CCCc1ccc2c(c1)CC1(Cc3ccccc3C1)C2 | inactive: > 100 µM
19 | COC(=O)C(C(=O)C(=O)Nc1ccccc1OC)c1csc(-n2nc(-c3ccccc3)cc2-c2ccccc2)n1 (configuration not stated) | inactive: > 100 µM
20 | Clc1ccc(C[P+](c2ccccc2)(c2ccccc2)c2ccccc2)c(Cl)c1 | inactive: 6.46 µM
21 | CC(C)C1NC(=O)CC(c2ccccc2)N(N=O)C1c1ccccc1 (configuration not stated) | inactive: > 100 µM
22 | C[C@@H](CC(=O)O)OC1OC(COC(=O)C(C)(C)C)C(OC(=O)C(C)(C)C)C(OC(=O)C(C)(C)C)C1OC(=O)C(C)(C)C (some centres not stated) | inactive: > 100 µM
23 | OC1(c2ccc3ccccc3c2)c2ccc3ccccc3c2C2=NCCN21 (configuration not stated) | inactive: > 100 µM
24 | CCSC1=N/C(=C/c2ccccc2O)C(=O)N1 | inactive: > 100 µM

Row | Structure (SMILES) | GI50
25 | Cc1ccc(S(=O)(=O)NC(CO)C(=O)O)cc1 (configuration not stated) | inactive: > 100 µM
26 | CN1C(=O)c2c(c3c4ccccc4n(C)c3c3c2c2ccccc2n3C)C1=O | inactive: > 100 µM
27 | N#Cc1c(-c2ccc([N+](=O)[O-])cc2)c(C#N)c(=O)n(NS(=O)(=O)c2ccccc2)c1-c1ccccc1 | inactive: > 100 µM
28 | Nc1ncnc2oc(C3OC(COC(=O)c4ccccc4)C(OC(=O)c4ccccc4)C3OC(=O)c3ccccc3)nc12 (configuration not stated) | inactive: 34.7 µM
29 | O=C(/C=C/c1cc(F)ccc1F)OCCc1ccccc1 | inactive: > 100 µM
30 | Cc1ccc(S(=O)(=O)N2CCCSCCN(S(=O)(=O)c3ccc(C)cc3)CCCSCC2)cc1 | inactive: > 100 µM
31 | CCN(CC)C(=O)C/C(C)=N/NC(=O)c1ccncc1 | inactive: > 100 µM
32 | Cc1ccc(C2(c3ccc(Cl)cc3)c3ccccc3C3=NCCN32)cc1 (configuration not stated) | inactive: 8.87 µM
33 | CC1=CC(=O)N(n2c(C)n[nH]c2=O)C1=O | inactive: > 100 µM
34 | C=C(C)[C@@H]1CC[C@]2(C(=O)O)CC[C@]3(C)[C@H](CC[C@@H]4[C@@]5(C)CC(=O)C(C)(C)[C@@H]5CC[C@]43C)[C@@H]12 | inactive: 8.47 µM
35 | N=C(c1cccs1)C1(N2CCCCC2)CCCCC1 | inactive: 23.8 µM
36 | O=C1c2ccccc2CC12Cc1ccc3c(c1C2)CCC3 (configuration not stated) | inactive: 20 µM
37 | NC(=S)N/N=C(/CC(=O)c1ccc([N+](=O)[O-])cc1)C(=O)Nc1ncc([N+](=O)[O-])s1 | inactive: > 100 µM
38 | O=C1N(c2ccccc2)C2(O)C(=O)c3ccccc3C2(O)N1c1ccccc1 (configuration not stated) | inactive: > 100 µM
39 | CNS(=O)(=O)NNS(=O)(=O)c1ccc(Cl)cc1 | inactive: > 100 µM
40 | O=C(O)C/C(=C\c1ccco1)C(=O)O | inactive: > 100 µM
41 | N#C/N=C(/N)NCc1ccccc1 | inactive: > 100 µM
42 | COc1cc(/C=C2\C(=O)N(C(=O)Cc3ccccc3)N=C2C)ccc1O | inactive: > 100 µM
43 | O=c1[nH]c(N/N=C\C(=N/Nc2nc3ccccc3c(=O)[nH]2)C(O)C(O)C(O)CO)nc2ccccc12 (configuration not stated) | inactive: > 100 µM
44 | O=C1CC2CC=C[C@H]3c4cc5c(cc4C(=O)N1C23)OCO5 (some centres not stated) | inactive: > 50 µM
45 | CNc1nc2n(CCO)c(-c3ccccc3)c(-c3ccccc3)nc-2c(=O)n1 | inactive: > 50 µM
46 | CC(=O)CC(=O)N1CCSC1=S | inactive: > 10 µM
47 | NC(=S)N/N=C/c1c[nH]c2ccccc12 | inactive: > 100 µM

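Compound exposure: 48 hours, 5 concentrations, 96-well plates. Here, GI50 denotes the concentration required for 50% inhibition of growth.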 The source made the active and inactive calls. No stated cut-off is given here; in the data, active = GI50 up to about 1.1 µM and inactive = higher.
